Measurements as given in PubChem BioAssay AID1345083 (National Center for Advancing Translational Sciences (NCATS), 2018).
In all, about 94,000 compounds went through this assay and about 6,200 (6.6%) were called active. Inconclusive means that the source gave no clear call. Such entries were picked first, then a sample of the others. Calls come from the whole dose curve; as a rule, active = well fitted inhibition curve with a large enough effect; inconclusive = small, poorly fitted or top-dose-only effect; inactive = flat fitted curve, though single readings scatter. Potencies beside an inconclusive call are fits to weak or partial responses and may not hold up.

Assay: Cytotoxic Profiling in HEK 293 Cell Line of Diverse Libraries Using Quantitative High-Throughput Screening; note: nearly all actives have a fitted effect of over 60% in size
Details: HEK 293 viability, ATP luminescence (CellTiter-Glo), 48-72 h; activity change, negative = cytotoxicity: at 115 µM (top of the series) unless noted; series mostly up to 115 µM
Procedure, shortened: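 Luminescence from cellular ATP, measured with CellTiter-Glo, indicates HEK 293 viability. Cells plated at 250 cells/well are treated with compound for 48 or 72 hr at 37 degree Celsius before reagent addition.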
% is set by controls: 0 for no effect and ±100 for the full control effect; potency is the fitted concentration of half-maximal effect; tags give direction and shape of the fitted curve.

Q: With `O=C(NCc1cccc(F)c1)C1CCCN(c2nccc(Nc3ccccc3F)n2)C1` (stereo not given) as the molecule, how does the Potency read?
A: Its Potency is inconclusive: 28.2 µM [inhibitor, partial curve, poor fit].

Q: Which Potency does the source give for `Fc1cc(Nc2cnc3ccc(-n4ccnc4)nn23)cc(N2CCOCC2)c1` here?
A: Its Potency is inconclusive: 100 µM [inhibitor, single point].

Q: For `Cc1nn(-c2ccccc2)c2c1C(C)N(C1CCN(C(=O)c3ccccc3Cl)CC1)C2=O` (stereo not given), which Potency is on record?
A: The Potency was inconclusive: 44.7 µM [inhibitor, partial curve, poor fit].

Q: Which “activity change, negative = cytotoxicity” value does the source give for `CCOC(=O)[C@@H]1CN(C(=O)CC(C)(C)C)[C@H]2c3ccccc3O[C@@H]12` here?
A: The value was inactive: -20.1%.

Q: Which Potency does the source give for `Cc1nc(C2(C)CCN(C(=O)c3cc(C)n(Cc4ccc(F)cc4)c3C)CC2)no1` here?
A: The Potency was inconclusive: 50.1 µM [inhibitor, partial curve, poor fit].

Q: Which Potency does the source give for `COc1ccc(-n2nc(C3CCCN(C(=O)c4ccc(C(F)(F)F)cc4)C3)[nH]c2=O)cc1` (stereo not given) here?
A: The Potency was inconclusive: 89.1 µM [inhibitor, single point].

Q: With `CC1(CNc2ccccc2)COc2ccc(C(=O)NCc3ccc(F)cc3)cc2N1` (stereo not given) as the molecule, how does the Potency read?
A: Its Potency is active: 70.8 µM.

Q: For `CCOC(=O)C1(Cc2cccc(OC)c2)CCCNC1` (stereo not given), which Potency is on record?
A: The Potency was inconclusive: 100 µM [inhibitor, single point].

Q: For `CCOC(=O)c1sc(NC(=O)CC[C@H]2NC(=O)c3ccccc3NC2=O)nc1C`, which “activity change, negative = cytotoxicity” value is on record?
A: Its value is inactive: -15.8%.

Q: Which Potency does the source give for `O=C(NCc1ccc(F)c(F)c1)c1ccc2nc(-c3ccncc3)oc2c1` here?
A: The Potency was inconclusive: 89.1 µM [inhibitor, single point].

Q: Which “activity change, negative = cytotoxicity” value does the source give for `COCCN1C(=O)c2cccn2CC1CNC(=O)CCc1nc2ccccc2[nH]1` (stereo not given) here?
A: The value was inactive: -1.07%.

Q: Which Potency does the source give for `COc1ccccc1N1CCN(C(=O)c2c(OC)cc(=O)n3c2CCCC3)CC1` here?
A: The Potency was inconclusive: 63.1 µM [inhibitor, partial curve, poor fit].

Q: With `CN(C)CCCOCC1(C)COc2ccc(C(=O)Nc3ccc(F)c(Cl)c3)cc2N1` (stereo not given) as the molecule, how does the Potency read?
A: Its Potency is active: 63.1 µM.

Q: With `O=C(c1cc2ccccc2[nH]1)N1CCC2(CC1)CN(c1ccncn1)CC2CO` (stereo not given) as the molecule, how does the Potency read?
A: The Potency was inconclusive: 89.1 µM [inhibitor, single point].

Q: With `COc1cc(CNc2nccc3c(=O)cc(N4CCOCC4)oc23)cc(OC)c1` as the molecule, how does the “activity change, negative = cytotoxicity” value read?
A: The value was inactive: -13.5% [at 172 µM].

Q: For `CCN(CC)Cc1ccc2c(c1)CN(C(=O)COCCOC)CCO2`, which “outcome” value is on record?
A: Its value is “inactive”.

Q: For `O=C(NCCN1CCOCC1)C1CCCN(c2ccnc3ccnn23)C1` (stereo not given), which “activity change, negative = cytotoxicity” value is on record?
A: Its value is inactive: -12.2%.

Q: Which Potency does the source give for `O=C(c1ccco1)N1CC(Oc2ccccc2-c2nc(-c3ccccc3)no2)C1` here?
A: Its Potency is active: 25.1 µM.

Q: With `Cc1cc(C(=O)N2CC(Oc3ccc(-c4nc(-c5ccccc5)no4)cc3)C2)n(C)n1` as the molecule, how does the Potency read?
A: The Potency was active: 11.2 µM.

Q: Which Potency does the source give for `CC1(C(=O)N2C[C@@H](COc3cccnc3)[C@H](c3ccccn3)C2)CC1` here?
A: The Potency was inconclusive: 79.4 µM [inhibitor, single point].
